Test results: PubChem BioAssay AID488969 (Vanderbilt High Throughput Screening Facility, 2010)
The full ranking holds about 110,000 compounds; the median of “z-score” is about -0.1, and the highest 2% start at about 2. Some of the results follow.

What follows are compounds tested against Metabotropic glutamate receptor 8 (Rattus norvegicus) (UniProt P70579) (assay: rat mGluR8 modulators via GIRK flux, primary screen, cell-based, thallium flux, HTS (AID 488969)). Conditions: HEK293 rat mGluR8, GIRK (G protein-gated inwardly rectifying potassium channel) thallium flux, FluoZin2; at 10 µM; stronger effect = higher value; submaximal glutamate (EC20) added with thallium.
UniProt P70579, sequence (P70579 whole entry, looked up): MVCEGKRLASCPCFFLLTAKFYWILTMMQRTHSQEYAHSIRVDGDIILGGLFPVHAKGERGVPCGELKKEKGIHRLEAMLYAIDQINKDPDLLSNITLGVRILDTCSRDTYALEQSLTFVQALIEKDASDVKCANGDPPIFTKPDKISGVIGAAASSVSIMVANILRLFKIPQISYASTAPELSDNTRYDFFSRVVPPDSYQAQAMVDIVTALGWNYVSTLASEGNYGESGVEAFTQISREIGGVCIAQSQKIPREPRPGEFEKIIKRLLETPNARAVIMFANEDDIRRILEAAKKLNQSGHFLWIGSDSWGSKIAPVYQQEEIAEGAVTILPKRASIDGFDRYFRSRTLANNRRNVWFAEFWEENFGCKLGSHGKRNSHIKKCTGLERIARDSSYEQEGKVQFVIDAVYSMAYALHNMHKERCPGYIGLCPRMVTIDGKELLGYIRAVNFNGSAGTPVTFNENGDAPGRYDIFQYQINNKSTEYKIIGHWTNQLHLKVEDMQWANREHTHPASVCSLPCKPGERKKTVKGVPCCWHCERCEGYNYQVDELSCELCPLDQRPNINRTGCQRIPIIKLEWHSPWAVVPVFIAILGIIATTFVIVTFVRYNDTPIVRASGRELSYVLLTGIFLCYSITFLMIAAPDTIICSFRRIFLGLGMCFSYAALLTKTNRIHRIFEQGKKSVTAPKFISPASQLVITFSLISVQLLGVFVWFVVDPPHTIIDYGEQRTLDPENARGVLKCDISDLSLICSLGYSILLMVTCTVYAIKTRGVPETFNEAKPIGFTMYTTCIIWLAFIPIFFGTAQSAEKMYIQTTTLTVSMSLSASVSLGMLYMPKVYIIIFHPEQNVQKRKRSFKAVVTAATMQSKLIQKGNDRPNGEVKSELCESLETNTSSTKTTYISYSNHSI
Work on `O=C(COC(=O)c1ccccc1S(=O)(=O)N1CCCCC1)NCC(F)(F)F` yielded a z-score of 0.315.
`CC(O)C1CCC2C3CC[C@H]4CC(O)CCC4(C)C3CC3(OCCO3)C12C` (some centres undefined) was tested, and the z-score was 0.165.
In the case of `O=C(O)/C(=C\c1cccc(F)c1)c1ccc(S(=O)(=O)N2CCCCC2)s1`, the z-score is reported as -1.42.
Work on `CCOC(=O)c1c(C)[nH]c(C)c1C(=O)COC(=O)c1ccccc1O` yielded a z-score of 0.517.
Compound `CCOC(=O)COc1ccc(S(=O)(=O)NCC2CCCO2)cc1` (centres undefined) has a z-score of 0.355.
With `O=C(COC(=O)CN1C(=O)C2CC=CCC2C1=O)Nc1cc(C(F)(F)F)ccc1N1CCOCC1` (centres undefined) the z-score was 0.545.
In the case of `COc1ccc(C(=O)/C=C/c2ccccc2OC)c(OC(=O)c2ccc([N+](=O)[O-])cc2)c1`, the z-score is reported as -0.041.
With `O=C(CSc1nc2ccccc2c(=O)n1-c1ccc(Cl)cc1)c1ccco1` the z-score was 0.876.
With `CC(C)C[C@H](NC(=O)OC(C)(C)C)c1n[nH]c(=S)n1N` the z-score was 0.357.
`CCOc1ccc(S(=O)(=O)n2ccnc2)c2ccccc12` gave a z-score of -0.173.
For `COC(=O)C1=C(N)Oc2cc(C)[nH]c(=O)c2C1c1ccncc1` (centres undefined), the z-score was 0.316.
`Cc1cc(NC(=O)CSCCO)no1` gave a z-score of 0.0318.
`Cc1nc2ccc(S(=O)(=O)NCC(=O)N3CCc4ccccc4C3)cc2s1` showed a z-score of 0.0372.
Compound `Cc1cccn2cc(CNc3ccccc3)nc12` has a z-score of -0.0695.
For `O=C(Cc1cccs1)Nc1ccc(Cl)cc1`, the z-score was 0.318.
Work on `Cc1c(C(=O)Nc2ccccc2)sc2nc[nH]c(=O)c12` yielded a z-score of -0.184.
In the case of `COC(=O)CSc1nc(C)cc(Oc2ccccc2)n1`, the z-score is reported as -0.406.
Work on `Cc1ccc(N2C(=O)C3C4CC(=O)C(c5ccccc54)C3C2=O)cc1` (centres undefined) yielded a z-score of 0.0115.
`COc1ccccc1NC(=O)c1cc(S(=O)(=O)N2CCOCC2)ccc1Cl` was tested, and the z-score was -0.185.
For `COc1ccc(C2CC(c3ccc4ccccc4c3)=NN2C(=O)CSc2ncccn2)cc1` (centres undefined), the z-score was -0.214.
Compound `CC1CCCCN1C(=O)CSc1nnc(-c2ccc(Cl)s2)o1` (centres undefined) has a z-score of -0.789.
In the case of `Cc1c(-c2ccccc2)nc2ccccc2c1C(=O)OCC(=O)Nc1ncc(C(F)(F)F)cc1Cl`, the z-score is reported as 0.00577.
Work on `Cc1ccccc1-c1nnc(SCC(=O)NC2CCCCC2)o1` yielded a z-score of -0.392.
With `CCc1nnc(NC(=O)CSc2nc3ccccc3o2)s1` the z-score was -0.0157.
With `COc1ccc(/C=N/NC(=O)CNc2n[nH]c(=O)[nH]c2=O)cc1OC` the z-score was 0.124.
`COc1ccc(CN(C(=O)CN2C(=O)COc3ccccc32)C2CCCC2)c(OC)c1` gave a z-score of 0.103.
`O=C(Cn1ncc2c1-c1ccccc1OC2)N1CCN(c2ccccn2)CC1` was tested, and the z-score was 0.0305.
With `Cc1ccc(S(=O)(=O)N2CCCOC2CNC(=O)C(=O)NCCc2c[nH]c3ccccc23)cc1` (centres undefined) the z-score was -0.2.
Work on `Cc1ccc(C(=O)CSc2nnc(-c3c[nH]c4ccccc34)o2)cc1` yielded a z-score of -0.00485.
Work on `Cc1cccc(N2CCN(C(=O)Cn3cnc4c3c(=O)n(C)c(=O)n4C)CC2)c1C` yielded a z-score of -0.973.
For `COc1cc(OC)cc(C(=O)NCCSCc2ccco2)c1`, the z-score was 0.229.
`S=C(Nc1cccc(Br)c1)c1ccccc1` showed a z-score of 1.85.
With `CCCCCOc1ccc(N2C(=O)C3C4C=CC(C3C2=O)N(C)C4=O)cc1` (centres undefined) the z-score was -0.0236.
With `Cc1ccc(NC(=O)Cn2c(O)c(N=NS(=O)(=O)c3ccc(C)cc3)c3ccccc32)cc1` the z-score was -0.179.
With `CCN(CC)C(=O)c1sc(N)c(C(=O)OC(C)C)c1C` the z-score was -0.929.
`CCn1c2ccccc2c2cc(NC(=O)CSc3nnc(C4CC4)n3Cc3ccco3)ccc21` gave a z-score of 0.385.
Work on `COc1cc(C2C(C#N)=C(N)N(c3sc4c(c3C#N)CCCC4)C3=C2C(=O)CC(C)(C)C3)cc(OC)c1OC` (centres undefined) yielded a z-score of -0.451.
Work on `Cn1c(SCC(=O)N2CCN(c3ccccc3)CC2)nnc1-c1ccco1` yielded a z-score of 0.14.
`O=C(CSc1nc(-c2ccccc2)cc(C(F)(F)F)n1)NCc1ccco1` was tested, and the z-score was -0.00949.
Work on `N/C(=N\OC(=O)c1ccc(Cl)cc1)c1ccccn1` yielded a z-score of -0.296.
For `Cc1ccccc1NC1C=CS(=O)(=O)C1` (centres undefined), the z-score was -0.358.
`CCc1nnc(NC(=O)c2ccc(S(=O)(=O)N(CC)CC)cc2)s1` was tested, and the z-score was -0.43.
Work on `COc1ccc(Nc2nc(-c3ccccc3)cs2)cc1` yielded a z-score of -0.21.
Compound `CCOC(=O)c1c(-c2ccc(OC)cc2)csc1NC(=O)COc1ccc2c(C)cc(=O)oc2c1` has a z-score of -0.148.
`Cc1cc(C(=O)N(C)C)sc1-c1ccccc1` showed a z-score of -0.146.
`Cc1cc(C)n(S(=O)(=O)c2cc(C(=O)O)c(Cl)cc2Cl)n1` gave a z-score of -0.129.
Work on `Cc1ccccc1NCN1C(=O)C2C3C=CC(C3)C2C1=O` (centres undefined) yielded a z-score of -0.234.
`COc1cccc(CNC(=O)Cn2c(=O)oc3ccccc32)c1OC` showed a z-score of -0.299.
`CCOC(=O)c1ccccc1NC(=O)/C=C/c1cc(OC)c(OC)c(OC)c1` showed a z-score of -0.542.
In the case of `O=C(CSc1nnc(-c2ccco2)n1CC1CCCO1)N1CCCCC1` (centres undefined), the z-score is reported as 0.298.
`COc1ccc(N=c2cc(-c3ccc(OC)cc3)oc3ccccc23)cc1` showed a z-score of -0.0327.
With `Cc1ccc(N2C(=O)C3CC(c4ccccc4)=C4C5C=CC(C6C(=O)N(c7ccc(C)cc7C)C(=O)C56)C4C3C2=O)c(C)c1` (centres undefined) the z-score was 0.179.
`O=C(Nc1ccc(Cl)cn1)c1cccc(F)c1` showed a z-score of 0.192.
Compound `CCOC(=O)C1CCCN(C(=O)c2cc3nc(-c4cccc(OC)c4)cc(C(F)(F)F)n3n2)C1` (centres undefined) has a z-score of -0.347.
Work on `CC(C)C(OC(=O)c1cccs1)C(=O)NC1CCCCC1` (centres undefined) yielded a z-score of 0.219.
`CC(C)c1ccc(S(=O)(=O)c2n[nH]n3c2nc(=O)c2ccccc23)cc1` showed a z-score of 2.66.
`Cc1ccccc1Nc1nc(N)nc(COC(=O)c2ccc(S(=O)(=O)N(C)C)cc2)n1` was tested, and the z-score was -0.0781.
`COc1ccc(NC(=O)CCN2CCN(S(=O)(=O)c3cc(Cl)ccc3OC)CC2)cc1` gave a z-score of -0.139.
Compound `COc1nc(OC)nc(N2CCC(C(=O)Nc3cccc4c3CCCC4)CC2)n1` has a z-score of -0.455.
Work on `COc1cccc(NC(=O)Cn2nnc(C(=O)Nc3ccccc3)c2N)c1` yielded a z-score of 0.726.
With `Cc1c(NC(=O)c2noc3c2CCc2ccccc2-3)c(=O)n(-c2ccccc2)n1C` the z-score was -0.471.
Work on `NC(=O)COc1ccc(NC(=O)OCc2ccccc2)cc1` yielded a z-score of -0.0293.
`CCOC(=O)c1ccc(NC(=O)C2(c3ccc(OC)cc3)CCOCC2)cc1` was tested, and the z-score was 0.831.
Compound `O=c1c2c3c(sc2nc2n1CCCC2)CCCC3` has a z-score of -0.196.
`O=c1oc2ccccc2c2c1ncn2-c1ccccc1` showed a z-score of -1.46.
In the case of `CSc1nnc(-c2ccccc2)c(=O)[nH]1`, the z-score is reported as -0.266.
For `c1ccc(Cn2nnnc2-c2ccco2)cc1`, the z-score was -0.194.
`CCOC(=O)N1CCN(C(=O)c2ccc3c(=O)n(CC4CCCO4)c(=S)[nH]c3c2)CC1` (centres undefined) showed a z-score of 0.178.
Compound `CCOC(=O)CCC(NC(=O)CCCCC(=O)NC(CCC(=O)OCC)C(=O)OCC)C(=O)OCC` (centres undefined) has a z-score of 0.954.
